Results published in patent publication US20180371044A1, “PEPTIDOMIMETIC MACROCYCLES” (Aileron Therapeutics, Inc., priority 2015, published 2018).
pEC50: −log10 of the molar value. Read-outs that look alike come from different tables or passages of the source. For at least one compound, name, drawing or mass did not settle the structure. Where a SMILES comes first, the peptide text is derived from it. Bridges are numbered along the chain shown (N, C = ends). [ ]: non-standard residue; d: D form. The star is where a group is joined. Desaminotyrosyl = O=C(CCc1ccc(O)cc1)*; Lys(iPr) = CC(C)NCCCC[C@H](N)C(=O)O; NMeY = CN[C@@H](Cc1ccc(O)cc1)C(=O)O; R8 = C=CCCCCCC[C@@](C)(N)C(=O)O; S5 = C=CCCC[C@](C)(N)C(=O)O; Nle = CCCC[C@H](N)C(=O)O; Aib = CC(C)(N)C(=O)O

Experiments:
[1] = molecular target: T1, human GHRH receptor (hGHRHR) (Homo sapiens, UniProt Q02643); test: GHRHR agonism measured by cAMP (HTRF) in human 293 cells expressing hGHRHR; assay type: cell-based; conditions: 30 min at RT
T1 construct: expressed in transfected cells; host or cells: Human 293 cells
T1 sequence (Q02643 23-423): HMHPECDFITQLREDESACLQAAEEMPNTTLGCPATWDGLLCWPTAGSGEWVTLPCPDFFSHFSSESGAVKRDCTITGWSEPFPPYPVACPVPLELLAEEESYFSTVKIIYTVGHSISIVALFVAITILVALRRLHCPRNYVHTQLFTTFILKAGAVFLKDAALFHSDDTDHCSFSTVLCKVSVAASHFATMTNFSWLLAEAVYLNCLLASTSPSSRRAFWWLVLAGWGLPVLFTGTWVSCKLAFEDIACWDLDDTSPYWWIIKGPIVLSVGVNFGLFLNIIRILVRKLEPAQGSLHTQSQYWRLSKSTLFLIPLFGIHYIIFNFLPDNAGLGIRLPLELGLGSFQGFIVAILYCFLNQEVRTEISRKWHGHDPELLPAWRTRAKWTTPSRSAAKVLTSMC

[2] = dog 0.1 μg/kg IV, literature values; cited from earlier work
[3] = human 0.5, 1, or 2 mg SC, literature values; cited from earlier work

Row | Structure (SMILES) | pEC50 [1] | AUCinf [2] | t ½ [2] | t ½ [3]
1 | CC/C=C/CC(=O)N[C@@H](Cc1ccc(O)cc1)C(=O)N[C@@H](C)C(=O)N[C@@H](CC(=O)O)C(=O)N[C@@H](C)C(=O)N[C@H](C(=O)N[C@@H](Cc1ccccc1)C(=O)N[C@H](C(=O)N[C@@H](CC(N)=O)C(=O)N[C@@H](CO)C(=O)N[C@@H](Cc1ccc(O)cc1)C(=O)N[C@@H](CCCNC(=N)N)C(=O)N[C@@H](CCCCN)C(=O)N[C@H](C(=O)N[C@@H](CC(C)C)C(=O)NCC(=O)N[C@@H](CCC(N)=O)C(=O)N[C@@H](CC(C)C)C(=O)N[C@@H](CO)C(=O)N[C@@H](C)C(=O)N[C@@H](CCCNC(=N)N)C(=O)N[C@@H](CCCCN)C(=O)N[C@@H](CC(C)C)C(=O)N[C@@H](CC(C)C)C(=O)N[C@@H](CCC(N)=O)C(=O)N[C@@H](CC(=O)O)C(=O)N[C@H](C(=O)N[C@@H](CCSC)C(=O)N[C@@H](CO)C(=O)N[C@@H](CCCNC(=N)N)C(=O)N[C@@H](CCC(N)=O)C(=O)N[C@@H](CCC(N)=O)C(=O)NCC(=O)N[C@@H](CCC(=O)O)C(=O)N[C@@H](CO)C(=O)N[C@@H](CC(N)=O)C(=O)N[C@@H](CCC(N)=O)C(=O)N[C@@H](CCC(=O)O)C(=O)N[C@@H](CCCNC(=N)N)C(=O)NCC(=O)N[C@@H](C)C(=O)N[C@@H](CCCNC(=N)N)C(=O)N[C@@H](C)C(=O)N[C@@H](CCCNC(=N)N)C(=O)N[C@@H](CC(C)C)C(N)=O)[C@@H](C)CC)C(C)C)[C@@H](C)O)[C@@H](C)CC [SP-1, reference compound] | 8.00 to 9.00 | 5301 ng·h/mL | 0.4 h | 2 to 5 h
2 | CCCC[C@H](NC(=O)[C@@H](NC(=O)[C@H](CC(=O)O)NC(=O)[C@H](CCC(N)=O)NC(=O)[C@H](CC(C)C)NC(=O)[C@H](C)NC(=O)[C@H](CCCCN)NC(=O)[C@H](CCCNC(=N)N)NC(=O)[C@H](C)NC(=O)[C@H](CO)NC(=O)[C@H](CC(C)C)NC(=O)[C@H](CCC(N)=O)NC(=O)[C@H](C)NC(=O)[C@H](CC(C)C)NC(=O)[C@@H](NC(=O)[C@H](CCCCN)NC(=O)[C@H](CCCNC(=N)N)NC(=O)[C@H](Cc1ccc(O)cc1)NC(=O)[C@H](CO)NC(=O)[C@H](C)NC(=O)[C@@H](NC(=O)[C@H](Cc1ccccc1)NC(=O)[C@@H](NC(=O)[C@H](C)NC(=O)[C@H](CC(=O)O)NC(=O)[C@H](C)NC(=O)CCc1ccc(O)cc1)[C@@H](C)CC)[C@@H](C)O)C(C)C)[C@@H](C)CC)C(=O)N[C@@H](CO)C(=O)N[C@@H](CCCNC(=N)N)C(N)=O [SP-38] (Desaminotyrosyl-ADAIFTASYRKVLAQLSARKALQDI[Nle]SR-NH2; N-terminus and C-terminus assumed) | 8.00 to 9.00 | – | – | –
3 | CCCC[C@H](NC(=O)[C@@H](NC(=O)[C@H](CC(=O)O)NC(=O)[C@H](CCC(N)=O)NC(=O)[C@H](CC(C)C)NC(=O)[C@H](C)NC(=O)[C@H](CCCCN)NC(=O)[C@H](CCCNC(=N)N)NC(=O)[C@H](C)NC(=O)[C@H](CO)NC(=O)[C@H](CC(C)C)NC(=O)[C@H](CCC(N)=O)NC(=O)[C@H](C)NC(=O)[C@H](CC(C)C)NC(=O)[C@@H](NC(=O)[C@H](CCCCNC(C)C)NC(=O)[C@H](CCCNC(=N)N)NC(=O)[C@H](Cc1ccc(O)cc1)NC(=O)[C@H](CO)NC(=O)[C@H](C)NC(=O)[C@@H](NC(=O)[C@H](Cc1ccccc1)NC(=O)[C@@H](NC(=O)[C@H](C)NC(=O)[C@H](CC(=O)O)NC(=O)[C@H](C)NC(=O)[C@H](Cc1ccc(O)cc1)NC)[C@@H](C)CC)[C@@H](C)O)C(C)C)[C@@H](C)CC)C(=O)N[C@@H](CO)C(=O)N[C@@H](CCCNC(=N)N)C(N)=O [SP-50] (H-[NMeY]ADAIFTASYR[Lys(iPr)]VLAQLSARKALQDI[Nle]SR-NH2) | ≥ 9.00 | – | – | –
4 | CCCC[C@H](NC(=O)[C@@H](NC(=O)[C@H](CC(=O)O)NC(=O)[C@H](CCC(N)=O)NC(=O)[C@H](CC(C)C)NC(=O)[C@H](C)NC(=O)[C@H](CCCCNC(C)C)NC(=O)[C@H](CCCNC(=N)N)NC(=O)[C@H](C)NC(=O)[C@H](CO)NC(=O)[C@H](CC(C)C)NC(=O)[C@H](CCC(N)=O)NC(=O)[C@H](C)NC(=O)[C@H](CC(C)C)NC(=O)[C@@H](NC(=O)[C@H](CCCCN)NC(=O)[C@H](CCCNC(=N)N)NC(=O)[C@H](Cc1ccc(O)cc1)NC(=O)[C@H](CO)NC(=O)[C@H](C)NC(=O)[C@@H](NC(=O)[C@H](Cc1ccccc1)NC(=O)[C@@H](NC(=O)[C@H](C)NC(=O)[C@H](CC(=O)O)NC(=O)[C@H](C)NC(=O)[C@H](Cc1ccc(O)cc1)NC)[C@@H](C)CC)[C@@H](C)O)C(C)C)[C@@H](C)CC)C(=O)N[C@@H](CO)C(=O)N[C@@H](CCCNC(=N)N)C(N)=O [SP-51] (H-[NMeY]ADAIFTASYRKVLAQLSAR[Lys(iPr)]ALQDI[Nle]SR-NH2) | ≥ 9.00 | – | – | –
5 | CCCC[C@H](NC(=O)[C@@H](NC(=O)[C@H](CC(=O)O)NC(=O)[C@H](C)NC(=O)[C@H](CC(C)C)NC(=O)[C@H](C)NC(=O)[C@H](CCCCN)NC(=O)[C@H](CCCNC(=N)N)NC(=O)[C@]1(C)CCCC=CCCCCCC[C@@](C)(NC(=O)[C@H](CCCNC(=N)N)NC(=O)[C@H](Cc2ccc(O)cc2)NC(=O)[C@H](CO)NC(=O)[C@H](C)NC(=O)[C@@H](NC(=O)[C@H](Cc2ccccc2)NC(=O)[C@@H](NC(=O)[C@H](C)NC(=O)[C@H](CC(=O)O)NC(=O)[C@H](C)NC(=O)[C@H](Cc2ccc(O)cc2)NC)[C@@H](C)CC)[C@@H](C)O)C(=O)N[C@@H](C(C)C)C(=O)N[C@@H](CC(C)C)C(=O)N[C@@H](C)C(=O)N[C@@H](CCC(N)=O)C(=O)N[C@@H](CC(C)C)C(=O)N[C@@H](CO)C(=O)N1)[C@@H](C)CC)C(=O)N[C@@H](CO)C(=O)N[C@@H](CCCNC(=N)N)C(N)=O [SP-63] (H-[NMeY]ADAIFTASYR[R8]VLAQLS[S5]RKALADI[Nle]SR-NH2; staple 12-19) | 7.60 to 8.00 | – | – | –
6 | CC[C@H](C)[C@H](NC(=O)[C@H](C)NC(=O)[C@H](CC(=O)O)NC(=O)[C@H](C)NC(=O)[C@H](Cc1ccc(O)cc1)NC)C(=O)N[C@@H](Cc1ccccc1)C(=O)N[C@H](C(=O)N[C@@H](C)C(=O)N[C@@H](CO)C(=O)N[C@@H](Cc1ccc(O)cc1)C(=O)N[C@@H](CCCNC(=N)N)C(=O)N[C@]1(C)CCCCCCC=CCCC[C@@](C)(C(=O)N[C@@H](CCCNC(=N)N)C(=O)N[C@@H](CCCCN)C(=O)N[C@@H](C)C(=O)N[C@@H](CC(C)C)C(=O)N[C@@H](CCC(N)=O)C(=O)N[C@@H](CC(=O)O)C(=O)N[C@H](C(=O)N[C@@H](C)C(=O)N[C@@H](CO)C(=O)N[C@@H](CCCNC(=N)N)C(N)=O)[C@@H](C)CC)NC(=O)[C@H](CO)NC(=O)[C@H](CC(C)C)NC(=O)[C@H](CCC(N)=O)NC(=O)[C@H](C)NC(=O)[C@H](CC(C)C)NC(=O)[C@H](C(C)C)NC1=O)[C@@H](C)O [SP-64] (H-[NMeY]ADAIFTASYR[R8]VLAQLS[S5]RKALQDIASR-NH2; staple 12-19; N-terminus and C-terminus assumed) | 7.60 to 8.00 | – | – | –
7 | CCCC[C@H](NC(=O)[C@@H](NC(=O)[C@H](CC(=O)O)NC(=O)[C@H](CCC(N)=O)NC(=O)[C@H](CC(C)C)NC(=O)[C@H](C)NC(=O)[C@H](CCCCN)NC(=O)[C@H](CCCNC(=N)N)NC(=O)[C@]1(C)CCCC=CCCCCCC[C@@](C)(NC(=O)[C@H](CCCNC(=N)N)NC(=O)[C@H](Cc2ccc(O)cc2)NC(=O)[C@H](CO)NC(=O)C(C)(C)NC(=O)[C@@H](NC(=O)[C@H](Cc2ccccc2)NC(=O)[C@@H](NC(=O)[C@H](C)NC(=O)[C@H](CC(=O)O)NC(=O)[C@H](C)NC(=O)[C@H](Cc2ccc(O)cc2)NC)[C@@H](C)CC)[C@@H](C)O)C(=O)N[C@@H](C(C)C)C(=O)N[C@@H](CC(C)C)C(=O)N[C@@H](C)C(=O)N[C@@H](CCC(N)=O)C(=O)N[C@@H](CC(C)C)C(=O)N[C@@H](CO)C(=O)N1)[C@@H](C)CC)C(=O)N[C@@H](CO)C(=O)N[C@@H](CCCNC(=N)N)C(N)=O [SP-66] (H-[NMeY]ADAIFT[Aib]SYR[R8]VLAQLS[S5]RKALQDI[Nle]SR-NH2; staple 12-19) | 7.30 to 7.60 | – | – | –
